In PubChem BioAssay AID1346428 (National Center for Advancing Translational Sciences (NCATS), 2018):
About 1,200 (2.5%) of roughly 48,000 compounds were called active. About 2% were inconclusive and are not listed.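 The calls were made as follows: active = activation of at least 60% and not above a set upper limit (about 1 call in 100 departs from these limits); inconclusive = activation of 40% to 60%, or above that upper limit; inactive = activation under 40%.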 The list shows a part of the results.

Molecular target: Probable G-protein coupled receptor 32 (Homo sapiens) (UniProt O75388)
Assay: qHTS for Agonists of Human Resolvin D1 Receptor DRV1; also: 0% is about no effect
Conditions: CHO-K1 GPR32 beta-arrestin PathHunter luminescence, 90 min; at 76.9 µM; active compounds read high; zero percent set by DMSO-only wells
Procedure, shortened: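 PathHunter enzyme-fragment complementation, CHO-K1 GPR32 stable line; 2,500 cells/well, overnight attach; cpd 90 min 37 °C 5% CO2; detection reagent 1 h RT; chemiluminescence. DMSO = EC0.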

UniProt O75388, sequence (O75388 whole entry, looked up): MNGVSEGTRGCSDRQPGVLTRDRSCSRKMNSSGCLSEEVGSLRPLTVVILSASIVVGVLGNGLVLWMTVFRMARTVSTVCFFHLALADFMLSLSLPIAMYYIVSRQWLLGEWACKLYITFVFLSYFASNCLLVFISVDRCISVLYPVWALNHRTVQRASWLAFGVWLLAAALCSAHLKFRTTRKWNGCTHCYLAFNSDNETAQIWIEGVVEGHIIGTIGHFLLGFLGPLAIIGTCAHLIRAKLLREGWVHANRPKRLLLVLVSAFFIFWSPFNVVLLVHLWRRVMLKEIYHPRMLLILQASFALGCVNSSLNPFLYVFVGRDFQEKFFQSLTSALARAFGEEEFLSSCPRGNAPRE

activation, inactive:
CC(C)(C)C1CCc2c(sc3nc(-c4cc5ccccc5oc4=O)[nH]c(=O)c23)C1 (stereo unspecified) 10.8%
COc1ccccc1-c1noc(-c2ccc(NC3CCCCC3)c([N+](=O)[O-])c2)n1 11.5%
CCCCN(CCCNC(=O)CN1N=C(c2ccc(C)cc2)CCC1=O)c1ccccc1 -5.96%
COc1cccc(NC(=O)CCc2nc3c(C)nn(-c4ccc(C)cc4)c3n(C)c2=O)c1 6.02%
COCCCNC(=O)c1cnc2sc(N3CCCCCC3)nn2c1=O 4.43%
Cc1ccc2c(c1)-c1c(cnn1CC(=O)N1CCN(c3ccccc3F)CC1)CO2 -14.5%
O=c1c(=O)n(Cc2ccc(Cl)cc2)ccn1Cc1ccc(F)cc1 -8.12%
COc1ccc(-c2cn3cccnc3n2)cc1NC(=O)Cc1ccccc1 -6.97%
Cc1oc2ncn(CC(C)C)c(=O)c2c1C(=O)NCCc1ccccc1 -1.62%
COc1cccc(OCC(=O)NCCS(=O)(=O)N2CCN(c3ccccc3F)CC2)c1 -25.7%
Cc1cc(C)n2c(Nc3ccc(C(C)C)cc3)c(-c3ccsc3)nc2n1 -30.1%
CCN(CC)C(=O)CSc1nc2ccsc2c(=O)n1Cc1ccccc1Cl -33.5%
CCc1nc2cccnc2n1-c1ccc(CC(=O)Nc2c(C)cccc2C)cc1 0.209%
C[C@@H](C1=C(CCN(C)C)Cc2ccccc21)c1ccccn1 9.08%
O=C(CCN1CCN2CCCC2C1)N1c2ccccc2Sc2ccc(Cl)cc21 (stereo unspecified) -5.23%
Cc1ccc(OCC(=O)NCC2(N(C)C)CCCCC2)cc1C 12.6%
Cc1ccc(C)c(NC(=O)Cn2c(=O)n(-c3ccc(CC(=O)NCC4CCCO4)cc3)c(=O)c3ccccc32)c1 (stereo unspecified) 0.118%
CCCCC(CC)COC(=O)c1ccccc1O (stereo unspecified) -11.4%
Cc1ccc(NC(=O)c2c(C)nc3sc(C(=O)Nc4ccc(F)cc4)c(N)c3c2-c2ccc(C)o2)c(C)c1 -13.8%
Cc1ccc(CNc2oc(-c3ccc(COc4ccc(C)cc4)o3)nc2C#N)cc1 -25.4%
CCCOc1ccc(C(=O)NCC2OCCc3ccccc32)cc1 (stereo unspecified) 7.25%
CC1CN(C(=O)CCC(=O)Nc2cc(F)ccc2F)c2ccccc2S1 (stereo unspecified) -21.8%
COc1ccc(C(=O)Nc2ccc3oc(-c4ccc(F)cc4Cl)nc3c2)cc1 23.1%
CCCc1nc2ccccc2n1CC(O)COc1ccc(C(=O)OC)cc1 (stereo unspecified) -11.6%
CCOC(=O)C1CCCN(C(=O)Cn2ncc3c(C)n(Cc4ccccc4Cl)c(C)c3c2=O)C1 (stereo unspecified) -2.31%
CCc1ccc(CNC(=O)c2cc3ccccn3n2)cc1 3.01%
COc1ccc(C2C(C(=O)Nc3ccc(Cl)cc3)=C(C)Nc3nc(SCc4cccc(C)c4)nn32)cc1OC (stereo unspecified) -5.02%
COCCCN1C(=O)c2ccccc2CC1(C)C(=O)NC1CCCCC1 (stereo unspecified) -8.23%
CCC1CCCCN1S(=O)(=O)c1ccc(C(=O)Nc2sc3c(c2C(N)=O)CCC3)cc1 (stereo unspecified) -20.9%
O=C(Nc1ccc(Cl)cc1F)c1cnc2sc(N3CCOCC3)nn2c1=O 6.08%
CCN(CCCc1ccccc1)CCCc1ccccc1 30.6%
Cc1ccc2nc(NC(=O)CSc3nccn3-c3ccc(Cl)cc3)sc2c1 13.6%
COc1ccc(-c2nc(C)c(CCNC(=O)c3cccs3)s2)cc1OC 2.95%
COc1ccccc1CNc1cc(C)nc2nc(-c3ccc(C)cc3)nn12 35.8%
CC(C)(C)OC(=O)N1CCC(c2c(C(=O)N3CCN(c4ccccn4)CC3)cnn2-c2ccccc2)CC1 -8.78%
COc1ccc(CCNC(=O)c2cnn(-c3cccc(C)c3)c2C2CCN(C(=O)OC(C)(C)C)CC2)cc1OC -15.8%
CC(C)COc1ccc(C(=O)N2CCCCC2CCN2CCCCC2)cc1 (stereo unspecified) 5.04%
Cc1cccc(-c2nnn3c2nc(NCc2ccc4c(c2)OCO4)c2ccccc23)c1 -4.17%
COc1cccc2c1ncc1c(-c3ccc(C)cc3)nn(-c3ccc(F)cc3)c12 2.91%
CC(=O)c1ccc(NC(=O)c2noc3c2CSc2ccccc2-3)cc1 -6.99%
CCc1cc(C(=O)Nc2sc(C)c(CC)c2C#N)no1 -4.71%
CCc1ccc(CN2CCc3nc(N4CCN(c5ccccc5F)CC4)ncc3C2)cc1 -9.34%
CCCCOc1cccc(C(=O)Nc2cc(NC(=O)c3ccco3)ccc2OC)c1 23.2%
Cc1ccc(Cl)cc1N1CCN(C(=O)c2c(C)oc3ncnc(N4CCCCC4)c23)CC1 -3.39%
COc1cccc(NC(=O)CCc2c(C)nc3nc(CNC(=O)c4cccc(F)c4)nn3c2C)c1 -5.81%
Cc1ccc(CNC(=O)c2c(O)nc3cc(C)ccn3c2=O)cc1 2.52%
Cc1ccc2c(c1)-c1c(cnc3cc(-c4ccc(F)cc4)nn13)CO2 3.11%
COc1ccc(-c2cnc(C)o2)cc1S(=O)(=O)Nc1c(C)cc(C)cc1C -2.49%
CC(c1ccccc1)n1cc2c(c1-c1ccccc1Br)c(=O)n(C)c(=O)n2C (stereo unspecified) -24%
C#CCOc1ccc(-c2nnc(Nc3ccc(NC(C)=O)cc3)c3ccccc23)cc1 -10.3%
N[C@@H](Cc1ccc(F)cc1)C(=O)O 11.4%
Cc1ccccc1Nc1nn2c(=O)c3ccc(C(=O)NCCc4ccc(Cl)cc4)cc3nc2s1 11.7%
Cc1ccc2nc(Cl)c3cc(C(=O)N4CCCCC4C)sc3c2c1 (stereo unspecified) 0.366%
Cc1ccccc1CNC(=O)c1oc2c(c1C)-c1[nH]ncc1CC2 -9.56%
O=P(O)(O)C(O)(Cc1cccnc1)P(=O)(O)O -4.69%
COc1ccc(Cl)cc1NC(=O)CN1C(=O)C(C)(C)c2cc(S(=O)(=O)N3CCCCC3)ccc21 -2.83%
Cc1cccc(-n2ncc(C(=O)N3CCN(c4ccc(C)cc4C)CC3)c2C2CCN(C(=O)OC(C)(C)C)CC2)c1 -15%
CCOc1ccc(Nc2c(S(=O)(=O)c3ccc(Cl)cc3)cnc3ccc(OCC)cc23)cc1 -44%
CCOc1ccc(C2c3c(oc4ccc(C)cc4c3=O)C(=O)N2CCCN2CCOCC2)cc1 (stereo unspecified) -11%
CCN1c2ccccc2-c2nc(SCC(=O)NCc3ccc(Cl)cc3)ncc2S1(=O)=O 14.4%
Cc1ccsc1CN(C(=O)c1oc2ccc(Br)cc2c1C)C1CCS(=O)(=O)C1 (stereo unspecified) -26.5%
Cc1cn(C)c(CC(=O)NCc2ccccc2)c1C(=O)O 2.35%
Cc1c(C)n(Cc2ccc(F)cc2)c2ccc(C(=O)NCc3ccco3)cc12 -21.3%
CCOc1ccc(CCNC(=O)Cn2nnc(-c3ccccc3Cl)n2)cc1OCC 45%
O=C(CC1C(=O)N(c2ccccc2)C(=O)N1CCc1cccs1)Nc1ccc(F)cc1 (stereo unspecified) -0.708%
O=C(CCCn1c(=O)c2cccn2c2cccnc21)NCc1ccccc1Br -20.2%
CSc1ncc(C(=O)N2CCN(c3cccc(Cl)c3)CC2)c(C)n1 16.2%
O=C(CSc1ncc(-c2ccccc2)[nH]1)Nc1ccc(Cl)cc1 38.3%
Cc1ccc(CNc2nc(-c3ccco3)nn2S(=O)(=O)c2ccc3ccccc3c2)cc1 -15.2%
O=C(NCCN1CCN(c2cccc(Cl)c2)CC1)Nc1ccccc1C(F)(F)F -18.8%
Cc1ccc(S(=O)(=O)Nc2cc3c(cc2NCc2ccccc2)n(C)c(=O)n3C)cc1 18.9%
COc1ccc2c(c1)CC(C(=O)NCCCN1CCN(c3cccc(Cl)c3)CC1)CO2 (stereo unspecified) -13%
CCOC(=O)c1sc2ccccc2c1S(=O)(=O)N1CCN(c2cccc(C)c2)C(C)C1 (stereo unspecified) -25.4%
O=C(Cn1c(=O)nc(-c2ccccc2)c2cc(Cl)ccc21)N1CCN(c2ccccc2F)CC1 3.56%
COc1ccc(-c2cc3nc(C)c(CCC(=O)N4CCN(c5ccc(F)cc5)CC4)c(C)n3n2)c(OC)c1 -0.0624%
Cc1ccc(Nc2nc3ccccc3c3nnc(C)n23)c(C)c1 -26.5%
CCCCC#Cc1nc(NC)c2ncn([C@@H]3O[C@H](CO)[C@@H](O)[C@H]3O)c2n1 -0.005%
CC(=O)c1cccc(Nc2cc(C)nc3nc(Cc4ccccc4)nn23)c1 8.23%
CCCCN(CCCC)CCNC(=O)CN1C(=O)CSc2ccc(S(=O)(=O)N3CCOCC3)cc21 -9.55%
COc1ccc(NC(=O)c2c(C)oc3ccc(O)c(CN4CCN(Cc5ccccc5)CC4)c23)cc1Cl -14.5%
Cc1oc2ncn(C)c(=O)c2c1C(=O)NCCCN1CCCCC1C (stereo unspecified) -6.09%
CCCOc1ccc(CNC(=O)c2ccc(C)c(-n3c(C)nc4cccnc43)c2)cc1 -6.39%

activation, active:
CCc1ccc(C2=C(C)C(N3CCC(C(=O)NCc4ccccc4)CC3)=NS2(=O)=O)cc1 65.1%
Cc1oc2ccc(O)c(CN3CCCC3)c2c1C(=O)Nc1ccc(C(C)C)cc1 118%
CC(C)C1C(=O)Nc2ccc(S(=O)(=O)NCCc3ccc(Cl)cc3)cc21 (stereo unspecified) 87.3%
Cc1cc(N2CCN(C)CC2)nc2ccc(NC(=O)Nc3cccc(Cl)c3)cc12 93.5%
